For 167 variants, self-cleavage results are on record in the RNAGym collection of RNA variant scans (doi:10.7554/elife.90254).

Read counts are not given, so values of variants with three or more changes are uncertain.

First the molecules themselves.
B1: LINE1-mini (parent)
chain: GGCAGAGCUCAACACAGCGUGGCAAAGUGGCUGUGGCUAGACUGCC

The series covers variants of B1. The series is described as follows: self-cleavage, relative activity (ratio to wild type); higher = more cleavage; in vitro, sequencing; the parent is a self-cleaving ribozyme.
As for U9G C13U C23G A41G C45G, the self-cleavage turned out to be 0.03.
The figure for C10A G27U G29C G33A G40U is 0.03; for C10A A24C G35A it is 0.02; for C10A G19C A24U it is 0.02.
With U9G G22C C37U U38G, the self-cleavage stood at 0.02.
The same measure for U9G C31A C46G: 0.04; for C10A C15U A26G: 0.05.
The same measure for C10A C23A A26G C45G: 0.04; for C10A G35C C37G: 0.02; for U9G G29A G44A: 0.03.
The figure for C10A G30A G44C is 0.02.
Turning to U9G C13A G33A, the self-cleavage amounted to 0.06.
For the variant C10A U20C U32A G33A, the self-cleavage is 0.03.
The same measure for C10A G17C U32C G36C A41U C45G: 0.
As to C10A A12G U20G A26G G30U C37U, the self-cleavage was determined as 0.01.
The figure for C10A C37U G40U is 0; for C10A U20C C42U it is 0.01; for C10A U20G C45U it is 0.04.
For C10A C18A G21C, the self-cleavage was found to be 0.04.
As to C10A A26C G29C G36C U38A, the self-cleavage worked out at 0.
C10A C13U G29A C37G: the self-cleavage turned out to be 0.01.
In the case of C10A A14G C15G G17U C18U A25G G30A, the self-cleavage was determined as 0.01.
Consider U9G U20C C23G G40A C45U, for which the self-cleavage is 0.01.
The figure for C10A G19A G22A is 0.06.
C10A U28A C46G: the self-cleavage was determined as 0.06.
The same measure for C10A A14C U20C G22U G40A A41G: 0.01; for C10A G19C G21U G33A: 0.03; for C10A G33U A41G: 0.05.
In the case of U9G G21C G22A, the self-cleavage came out at 0.05.
The figure for C10A C13G G35C U43C is 0.02; for U9G G35U C37A it is 0.05; for C10A C13U C15G U20C U43A it is 0.01.
Take C10A C23A G30U: the self-cleavage worked out at 0.02.
For the variant C10A C13U C46A, the self-cleavage was 0.01.
The same measure for C10A C15A G44U: 0; for C10A A11C G19U C23U A24U: 0.01; for C10A G19A G21A G29U U32G: 0.04.
With C10A C31U G33A G44C, the self-cleavage was determined as 0.04.
Take C10A A24U G35C G44U: the self-cleavage was determined as 0.02.
The same measure for C10A A16U U32A: 0.05.
The figure for U9G C31A A39C is 0.03; for C10A A24C G33U A41G it is 0; for C10A A16G A41U it is 0.
Turning to U9G U32A U38A, the self-cleavage was 0.
The same measure for C10G A11G C13A: 0.02; for C10A A14C C18G C31G: 0; for C10A A11U A14C: 0.
For U9G U20G G27A G29C G35A, the self-cleavage worked out at 0.
Take C10A A25C G44A: the self-cleavage came out at 0.04.
In the case of C10A A25U G27A, the self-cleavage turned out to be 0.
The same measure for C10A C15U U32C: 0.01; for C10A A24G G30C G35A: 0.
The same measure for C10A U34C G35A G40U: 0.02.
The figure for C10A A11C G22U is 0; for C10A A12C C31U it is 0.02.
In the case of C10A G29U A41G G44A, the self-cleavage stood at 0.01.
The figure for C10A A25G G29U A41C is 0.01; for C10A A12C A25C G36C C46U it is 0; for C10A C18U G35A it is 0.02.
Take U9G C15G A24C G30A C45A: the self-cleavage came out at 0.02.
With U9G G21C A26C G29A G36U, the self-cleavage was 0.03.
Take C10A A11C A14C C18U G44A: the self-cleavage was 0.03.
The figure for C10G A11C G19U U32G is 0.01; for U9G G33A C37A it is 0.03.
The same measure for U9G C13U G17U A26C C37U G40U U43G C46A: 0.36; for C10A A14G U28G G35U: 0.01; for C10A U38C C42A: 0.01.
Consider C10A C23A G29U G33U C45A, for which the self-cleavage was 0.02.
The same measure for C10A A24G G40A: 0.02.
The same measure for U9G U32A C42U: 0.08; for U9G G22U C42A: 0.14; for C10A A11C G17U G33A U34A C42G: 0.01.
For the variant U9G G36U G40A C46U, the self-cleavage was determined as 0.03.
The same measure for C10A G19U C23G: 0.01; for C10A U20G C31U G35C U43A: 0.03.
The same measure for C10A G19U U28C C46A: 0.03; for U9G G40U A41U: 0.12.
U9G C13U G30U A39U: the self-cleavage was 0.01.
The same measure for C10A C13U C31G C46U: 0.02; for C10A A16U G27U U32A: 0; for U9G C23U C31G: 0.02.
As for C10A C15A G33U A39G, the self-cleavage was found to be 0.03.
On to C10A G29U C45A, for which the self-cleavage was 0.02.
U9G U20G A25G: the self-cleavage amounted to 0.09.
The figure for C10A A14G A16U C46A is 0.04.
As for C10A C23G U32G, the self-cleavage was 0.
In the case of U9G G40U C46U, the self-cleavage came to 0.04.
The figure for C10A U32A C42A is 0.03; for U9G G22U U34A C45G it is 0.07.
On to C10A G27C G35C, for which the self-cleavage was 0.04.
The same measure for C10A C37U G44C: 0.
The same measure for C10A A11G U28A U43A: 0; for C10A A25C G27C G40U: 0.02.
The same measure for C10A A14G C37U A41G: 0.01.
In the case of U9G U34A G40C G44U, the self-cleavage amounted to 0.11.
The same measure for C10A U20A A41G: 0.03.
The figure for U9G U20G G29U is 0.24.
The same measure for C10A C37U A41U: 0.01; for C10A U20A G22U G36U: 0.03.
On to C10A G22U G29A C46G, for which the self-cleavage came out at 0.06.
On to C10A C13U C42A, for which the self-cleavage was 0.03.
The same measure for U9G C18U C23A A26C: 0.09.
The figure for C10A C15U G22U is 0.05; for C10A U20G C23G it is 0.02.
On to U9G C23A U34C G40C, for which the self-cleavage was found to be 0.
Consider C10A A16C C23U U38C, for which the self-cleavage was found to be 0.02.
The figure for C10A G17U G22C C46A is 0; for C10A G21U U32G it is 0.04.
As for C10A G21A G30U C45U, the self-cleavage was 0.11.
For C10A U28G G30C, the self-cleavage came out at 0.04.
The same measure for C10A G19U G21A C23A: 0.04.
The figure for C10A G35A G44A is 0.03; for C10A U34G G35C it is 0.04.
In the case of C10A C23A U32C, the self-cleavage stood at 0.
Regarding U9G G21A A39G, the self-cleavage stood at 0.88.
The same measure for C10A G19A U28A: 0.03.
As to C10A G19A C31G, the self-cleavage was 0.03.
For the variant U9G C15A G17A U20G, the self-cleavage worked out at 0.11.
In the case of C10A G17A A25G A41U G44A, the self-cleavage turned out to be 0.01.
The figure for U9G G22U G44C is 0.18.
The same measure for C10A A16G A24U: 0.03; for C10A A12G C31A C42G: 0.
Regarding C10A A11C C15G G27U C45U, the self-cleavage was found to be 0.01.
The same measure for C10A G35C G40A: 0.01; for C10A G35A A41U U43C C45A: 0.01; for C10A U32G G33U G35C: 0.01.
For the variant U9G G21C G29C A39C, the self-cleavage amounted to 0.01.
The same measure for C10A C18A U20A G44A: 0.01; for U9G G17A U20G G27A G44C: 0.06; for C10A A12C A14U: 0.05.
As to C10A A12U C18U C31A, the self-cleavage came to 0.
The same measure for C10A G21A A24U U28C: 0.03; for C10A C13U U34A G36A: 0.04; for C10A G21C G30U C31G: 0.03.
The figure for C10G A11G U20C A25G A26C G36A is 0.
On to C10A A26U U28C C37U, for which the self-cleavage was 0.01.
In the case of U9G C15U U43C, the self-cleavage came out at 0.05.
The figure for C10A G27U A41C C42A is 0.01; for C10A A11G U20C G21A A39C U43A it is 0.01.
The figure for C10A C31U A39G G40C is 0; for C10A A12G G19A it is 0.04.
Consider C10A A24G G29A, for which the self-cleavage stood at 0.02.
Regarding C10A A25C G35C C37A, the self-cleavage worked out at 0.01.
The figure for C10A U28G G35U is 0.02.
As for C10A C13U C37A U43C, the self-cleavage came to 0.02.
The figure for C10A A14C C45A C46G is 0.03; for U9G C18G G44C it is 0.01.
The same measure for C10A A16U A26U: 0.02; for C10A G33C U38A: 0.
The same measure for C10A C18A C46G: 0.01; for C10A C18A A26C G33C U43C: 0.
As to C10A A16U A24G G33A C42U, the self-cleavage was 0.
The figure for C10A A24C G29U is 0.01.
On to C10A C18A C23U, for which the self-cleavage worked out at 0.07.
The figure for C10A A25U U28A G33A C42U is 0.01; for C10A A25C G33A G40A it is 0.03; for U9G G35U C42A it is 0.02.
As for C10A C18U A24U A41G, the self-cleavage was determined as 0.03.
For C10A G27U C37G C42A U43C, the self-cleavage stood at 0.
The figure for C10A C37U G44U C45A is 0.
As to C10A C13G G17A A26G U43A, the self-cleavage was found to be 0.01.
The same measure for C10A G19C G33U: 0.02; for U9G C13G A14C U20C C23U U28C G30U C42G: 0.05; for C10A G33C G35C A39U A41U G44A: 0.
For C10A A12G G40A, the self-cleavage came to 0.01.
The same measure for C10A G21C C46G: 0.01; for C10A A11U G19U A39G: 0.03.
